Reference: PubChem BioAssay (NCATS)
Inconclusive results, whose numbers are uncertain, are shown with a selection of clear calls. No potency is given beside an inconclusive call; the fits are too rough. Active and inactive are the calls of the source. The call rests on the fitted dose curve; in most records, active means well fitted cell-killing curve with a large enough effect; inconclusive means small, poorly fitted or top-dose-only effect, or effect the other way; inactive means no such curve, though single readings can be large or run the other way.
Potency means the concentration at half of the fitted maximal effect; tags describe the fitted curve by direction and shape.

Assay: Viability qHTS for spleen associated tyrosine kinase inhibitor (SYKi) drug resistant MV4-11 cells (AID 1963824); further: nearly all actives have a fitted effect of over 35% in size
Settings: SYKi-resistant MV4-11 viability, CellTiter-Glo, 72 h; series mostly up to 45 µM
Procedure, shortened: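 SYK inhibitor-resistant MV4-11 AML cells, 500 per well, added to predispensed compounds and incubated 72 hr at 37 C, 5% CO2. Viability measured by CellTiter-Glo luminescence after 10 min at room temperature.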
In the case of `CCN1CCN(Cc2ccc(NC(=O)c3ccc(C)c(Oc4ccnc5[nH]ccc45)c3)cc2C(F)(F)F)CC1`, the Potency is reported as active: 0.0718 µM.
For `Cc1cc(O)cc(C)c1Cl`, the Potency was inconclusive [rising, full curve, poor fit].
With `O=C(/C=C/c1ccc(O)c(O)c1)O[C@@H]1[C@@H](O)[C@H](OC2CCCCC2O)O[C@H](CO)[C@H]1O` (stereo partly specified) the Potency was “inactive”.
With `CC1(c2nc3c(C(N)=O)cccc3[nH]2)CCCN1` (stereo unspecified) the Potency was “inactive”.
With `COC(=O)N1CCN(Cc2cccc(NC(=O)Nc3ccc(C)nc3)c2F)CC1` the Potency was inconclusive [cytotoxic, partial curve].
For `NC(=Nc1ccc(CCNCc2cccc(Cl)c2)cc1)c1cccs1`, the Potency was inconclusive [cytotoxic, partial curve, poor fit].
In the case of `COc1ccccc1-n1c(SCC(=O)Nc2nc3ccc(C)cc3s2)nc2c(c1=O)SCC2`, the Potency is reported as “inactive”.
In the case of `COc1cccc(CNC(=O)Nc2nc(-c3ccncc3)cs2)c1`, the Potency is reported as active: 18.4 µM.
For `Cn1c2ccc(F)cc2c2c(C(=O)N3CCCC3)cn(-c3ccccc3)c(=O)c21`, the Potency was inconclusive [cytotoxic, partial curve, poor fit].
With `O=c1[nH]c2ccc(C#CCN3CCC(Cc4ccccc4)CC3)cc2[nH]1` the Potency was inconclusive [cytotoxic, full curve].
With `CCc1cccc(CC)c1NC(=O)c1nn(C)c2c1CCc1cnc(Nc3ccc(C(=O)NC4CCN(C)CC4)cc3OC(F)(F)F)nc1-2` the Potency was inconclusive [cytotoxic, partial curve, poor fit].
